Whole data set: some 110,000 compounds, median “z-score” near -0.1, cut for the highest 2% near 2. The list shows a part of the results. The source made the active and inactive calls.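 How the source made its calls: active means z-score in the third read window above 3 or below -3; inactive means the rest.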
The compounds below were run against Metabotropic glutamate receptor 8 (Rattus norvegicus) (UniProt P70579) (assay: mGluR8 Gi/Go-coupled signaling modulation – cell-based, rat, thallium flux, HTS, primary screen (AID 488969)). Settings: HEK293 rat mGluR8, GIRK (G protein-gated inwardly rectifying potassium channel) thallium flux, FluoZin2; at 10 µM; stronger effect = higher value; submaximal glutamate (EC20) added with thallium.
Chain of UniProt P70579 (P70579 whole entry, looked up): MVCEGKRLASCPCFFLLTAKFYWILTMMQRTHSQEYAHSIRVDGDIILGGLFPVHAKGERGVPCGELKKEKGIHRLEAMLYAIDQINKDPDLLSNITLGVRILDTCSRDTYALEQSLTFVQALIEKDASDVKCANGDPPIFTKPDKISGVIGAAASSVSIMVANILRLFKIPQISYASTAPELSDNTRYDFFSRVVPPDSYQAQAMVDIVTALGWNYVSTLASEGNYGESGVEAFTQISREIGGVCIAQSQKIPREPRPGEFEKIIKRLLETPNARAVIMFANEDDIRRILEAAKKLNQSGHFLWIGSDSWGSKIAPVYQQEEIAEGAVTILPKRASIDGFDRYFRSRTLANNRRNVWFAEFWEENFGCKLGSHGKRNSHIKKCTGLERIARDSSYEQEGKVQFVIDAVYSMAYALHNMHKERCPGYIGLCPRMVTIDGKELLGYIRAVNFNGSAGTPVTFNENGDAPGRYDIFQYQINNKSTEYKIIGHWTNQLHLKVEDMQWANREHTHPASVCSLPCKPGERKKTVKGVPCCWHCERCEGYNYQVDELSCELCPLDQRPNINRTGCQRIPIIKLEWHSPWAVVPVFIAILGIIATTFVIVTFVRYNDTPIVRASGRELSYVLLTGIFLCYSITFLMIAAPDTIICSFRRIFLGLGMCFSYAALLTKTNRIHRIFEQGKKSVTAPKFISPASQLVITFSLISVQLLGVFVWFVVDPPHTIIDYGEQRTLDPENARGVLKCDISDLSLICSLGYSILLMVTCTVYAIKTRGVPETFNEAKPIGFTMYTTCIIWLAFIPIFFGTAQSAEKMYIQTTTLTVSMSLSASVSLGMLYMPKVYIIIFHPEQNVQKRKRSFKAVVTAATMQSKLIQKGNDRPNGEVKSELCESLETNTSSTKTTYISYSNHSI

Compared with CC(=O)Nc1ccc(N=Nc2ccccc2)cc1, Nc1c(C(=O)Nc2ccc(Cl)cc2)oc2ccccc12 is higher in z-score: -0.0502 for the first, 0.273 for the second.

Compared with CCOc1ccccc1NC(=O)c1cc(CC(C)C)oc1C, CCOc1ccc(OCC)c(NC(=O)CSc2nc3ccccc3c(=O)n2C)c1 is higher in z-score: -0.903 for the first, 0.907 for the second.

First: COCCNC(=O)COc1ccc(C)c(C)c1
Second: COc1ccc(CCNC(=O)C(=O)NCC2CCCO2)cc1OC (configuration not stated)
The z-score of the first is higher: 0.109 for the first, -0.0833 for the second.

Going from CN1CCN(C(=O)c2c(NC(=O)c3ccco3)sc3c2CCC(C(C)(C)C)C3)CC1 (configuration not stated) to CC(C)C(=O)N1CCN(c2ccccc2NC(=O)c2cccc(Cl)c2)CC1, the z-score falls from 0.272 to -0.419.

First: Cc1cc2ncc(-c3ccc(Cl)cc3)c(N)n2n1
Second: CC(C)(C)c1cnnn1-c1ccc(-c2csc(N)n2)cc1
The z-score of the first is lower: -1.83 for the first, -0.0644 for the second.

First: CCCn1nc(C(=O)NCC(C)(C)N2CCOCC2)c2ccccc2c1=O
Second: O=C(CCn1[nH]c(=O)c2ccccc2c1=O)N1CCOCC1
The z-score of the first is higher: -0.0718 for the first, -0.82 for the second.

Going from CCN(CC)S(=O)(=O)c1ccc(/C(O)=C(\C#N)c2nc3ccccc3n2C)cc1 to CCN(CC)S(=O)(=O)c1ccc(C(=O)OCC(=O)c2ccc3c(c2)NC(=O)CO3)cc1, the z-score rises from -0.33 to -0.2.

Compared with Cc1ccc(-n2cc3c(-c4cccc(Br)c4)nnc(C)c3n2)cc1, Cc1ccc(-c2noc(-c3ccccc3Br)n2)cc1 is higher in z-score: -0.478 for the first, 0.762 for the second.

Going from CC(C)(C)c1ccc(C(=O)CSc2n[nH]c(=O)[nH]c2=O)cc1 to O=C(CCc1nc2ccccc2[nH]c1=O)OCC(=O)c1ccc(Cl)cc1, the z-score rises from -0.245 to 0.331.

First: Cc1c(Cl)cnc(NC(=O)COC(=O)c2cc3c(s2)CCC(C)C3)c1Cl (configuration not stated)
Second: COc1cccc(NC(=O)Cn2cnc3sc(C)c(S(=O)(=O)N4CCN(C)CC4)c3c2=O)c1
The z-score of the first is lower: -0.42 for the first, 0.0151 for the second.

Compared with CCCS(=O)(=O)N1CCC(C(=O)NCCN(C)Cc2ccccc2)CC1, CC(C)CC(=O)N1CCN(S(=O)(=O)c2ccccc2)CC1 is lower in z-score: 0.549 for the first, 0.164 for the second.

Compared with O=C1c2ccccc2C(=O)N1CCc1nc(-c2ccncc2)no1, COc1cccc(NC(=O)CCc2nc(-c3ccccc3F)no2)c1 is lower in z-score: -0.133 for the first, -0.45 for the second.

First: COc1ccc(/C=N/NC(=O)c2ccn[nH]2)cc1COc1ccc(Cl)cc1
Second: COc1ccc(C=O)cc1COc1ccc(F)cc1F
The z-score of the first is higher: -0.168 for the first, -0.293 for the second.

Compared with Cc1cccnc1NC(=O)Cn1nc(C)c([N+](=O)[O-])c1C, Cc1ccc(NC(=O)CC2Oc3ccccc3NC2=O)c(C)c1 (configuration not stated) is higher in z-score: -0.0376 for the first, 0.738 for the second.

Going from Cc1oc(-c2ccc(Cl)cc2)nc1CN1CCC(C(=O)N2CCN(Cc3ccccc3)CC2)CC1 to COc1ccc(Cn2c(=O)[nH]c3cc(C(=O)N4CCN(Cc5ccccc5)CC4)ccc3c2=O)cc1, the z-score rises from 0.0945 to 0.367.

First: O=c1c(-c2nc3ccccc3s2)cccn1Cc1ccccc1
Second: Cn1c(-c2ccc(C(=O)c3ccccc3)s2)nc2ccccc21
The z-score of the first is higher: 0.0467 for the first, -0.293 for the second.

First: Cc1nc(SCC(=O)Nc2ccccc2C(F)(F)F)c2c(=O)n(C)c(=O)n(C)c2n1
Second: Cn1nnnc1SCC(=O)Nc1cc(C(C)(C)C)nn1-c1ccccc1
The z-score of the first is lower: -0.153 for the first, 1.33 for the second.

Going from COc1cccc(C2=NOC(C(=O)NCc3ccco3)C2)c1 (configuration not stated) to O=C(NCc1ccco1)c1ccc2c(=O)n(Cc3ccco3)c(SCC(=O)N3CCCC3)nc2c1, the z-score falls from -0.0737 to -0.92.

Going from CCN(CC)P1(=O)OC(c2cc(OC)c(OC)c(OC)c2)=Nc2c1c(C)nn2-c1ccccc1 (configuration not stated) to COc1cc(-c2nnc3n2N=C(c2ccccc2)CS3)cc(OC)c1OC, the z-score rises from -1.4 to -0.164.

Going from C=CCc1cc(C(=O)N2CCCCC2)ccc1O to Cc1ccc(NC(=O)CSCC(=O)NC2CCCCC2)cc1, the z-score falls from 0.078 to -0.0477.

Compared with CCOc1ccc(/C=N/NC(=S)Nc2c(C)cccc2C)cc1, C/C(=N\NC(=S)NCCc1ccccc1)c1ccc(C)cc1 is higher in z-score: 0.767 for the first, 1.67 for the second.

First: N=c1sc2ccccc2n1-c1ccccc1
Second: Oc1cc(-c2ccccc2)c2ccccc2c1
The z-score of the first is higher: -0.074 for the first, -0.211 for the second.

Compared with CCCc1ccc(-c2c(C)sc(N)c2C#N)cc1, CCCCc1ccc(-c2nc(N)n[nH]2)cc1 is higher in z-score: -0.38 for the first, 2.99 for the second.

Compared with CCOC(=O)CC(=O)c1cc(OC)c(OC)c(OC)c1, COc1ccc(NC(=O)C(F)(F)F)cc1OC is lower in z-score: 0.627 for the first, -0.387 for the second.

Compared with COCCCn1c(SCC(=O)NCc2ccco2)nc2sc3c(c2c1=O)CCC3, Cc1ccc(-c2nn(CC(=O)NCCN3CCOCC3)c(=O)c3ccccc23)cc1 is higher in z-score: -0.383 for the first, -0.0872 for the second.

Going from Oc1ccc(Nc2nc(-c3ccc(O)cc3)cs2)cc1 to COc1ccc(-c2csc(NC(=O)C3CCCCN3S(=O)(=O)c3ccccc3)n2)cc1 (configuration not stated), the z-score rises from 0.0887 to 1.82.

Compared with COc1ccc(C2=NCN(c3ccc(C)cc3)C(=S)N2)cc1, CN(C)c1ccc(-c2nc3ccccc3n2C)cc1 is higher in z-score: 0.826 for the first, 1.17 for the second.

Compared with C=C(C)CN1CCN(S(=O)(=O)c2ccc(C)c(N(C)S(=O)(=O)c3ccc(C)cc3)c2C)CC1, CCOC(=O)N1CCN(CC(=O)Nc2c(C(=O)OC)[nH]c3cc(C)ccc23)CC1 is lower in z-score: -0.0807 for the first, -0.466 for the second.

Going from O=C(COc1ccc2c3c(c(=O)oc2c1)CCC3)c1ccc2c(c1)OCO2 to Cc1cc(=O)oc2cc(OCc3ccc(C(=O)N4CCN(c5ccccc5)CC4)cc3)ccc12, the z-score rises from -0.411 to -0.279.

First: NNC(=O)c1cc2c(s1)CCCCCC2
Second: COCCSc1nnc(NC(=O)C2CCCCC2)s1
The z-score of the first is higher: 0.0976 for the first, -0.224 for the second.

Compared with C1CCC(Nc2nnnn2C2CCCCC2)CC1, CN1CCN(C(=O)C23CC4CC(CC(C4)C2)C3)CC1 is higher in z-score: -0.0985 for the first, 0.0565 for the second.

Going from NC(=O)c1oc2ccccc2c1NC(=O)c1ccc(F)cc1 to COc1ccccc1NC(=O)c1ccc(NS(C)(=O)=O)cc1, the z-score falls from 0.595 to -0.372.

First: CCC(=O)c1c[nH]c(C(=O)NCC2CCCO2)c1 (configuration not stated)
Second: CCC(C)(C)C1CCC(=NNC(=O)c2ccc(Br)o2)CC1 (configuration not stated)
The z-score of the first is lower: 0.0438 for the first, 0.389 for the second.

Compared with COc1ccc(Nc2cc(C(=O)NCCCN3CCN(C)CC3)c3ccccc3n2)cc1OC, COc1ccc(-n2c(=O)c3ccccc3c3ccccc3c2=O)c(OC)c1 is higher in z-score: 0.285 for the first, 0.505 for the second.

Going from OC(COc1ccc(OCc2ccccc2)cc1)CN1CCCCC1 (configuration not stated) to O=C(c1ccccc1Oc1ccccc1)N1CCN(c2ccc(F)cc2)CC1, the z-score falls from 2.76 to -0.151.

Compared with O=C(Cc1cccs1)Nc1nnc(CCc2ccccc2)s1, C/C(=N\NC(=O)CNc1cccc2ccccc12)c1ccc(Br)s1 is lower in z-score: 0.238 for the first, -0.245 for the second.

Compared with O=C1CN(S(=O)(=O)c2ccccc2)CC(=O)N1CCc1ccccc1, O=P(Cc1cc[n+]([O-])cc1)(c1ccccc1)c1ccccc1 is higher in z-score: -0.228 for the first, -0.124 for the second.

Compared with Cc1cccc(C(=O)N2CCN(c3ccc(C(F)(F)F)cn3)CC2)c1C, Cc1cc(=O)[nH]c(SCCOc2cccc(C(F)(F)F)c2)n1 is lower in z-score: -0.22 for the first, -1.03 for the second.

Compared with COc1cc(Cn2cnnn2)ccc1O, COCc1ccc2oc(C(=O)O)cc2c1 is lower in z-score: -0.0623 for the first, -0.0899 for the second.

Compared with COc1ccc(NC(=S)NC(NC(=O)c2cccc(Cl)c2)C(Cl)(Cl)Cl)c([N+](=O)[O-])c1 (configuration not stated), CC(=O)Oc1ccc2ccccc2c1C(NC(=O)C(C)C)c1cccc([N+](=O)[O-])c1 (configuration not stated) is higher in z-score: -0.619 for the first, -0.172 for the second.

Compared with O=C(Nc1ccc(/C=C/c2nc3ccccc3o2)cc1)c1c(F)cccc1F, CCC(C)N(C(=O)Cn1nnc2ccccc21)C(C(=O)Nc1ccc(F)cc1)c1cccc(OC)c1 (configuration not stated) is lower in z-score: -0.151 for the first, -0.319 for the second.

Going from Cc1cc(C)cc(NC(=O)CSc2nnc(Cc3cccn3C)n2-c2ccc(F)cc2)c1 to COc1ccc(NS(=O)(=O)c2ccc3oc(SCc4ccc(F)cc4)nc3c2)cc1, the z-score rises from 0.202 to 1.44.

Going from CCN1C(=O)/C(=C/N2CCc3ccccc32)SC1=S to CCC(=O)N1CCN=C1SCc1ccccc1, the z-score rises from -0.279 to 0.616.

Going from NS(=O)(=O)c1ccc(CCNC(=O)COC(=O)C2CCCN2C(=O)c2cccs2)cc1 (configuration not stated) to O=C(COC(=O)c1ccc(Sc2ccccc2)c([N+](=O)[O-])c1)NC1CCCc2ccccc21 (configuration not stated), the z-score rises from -0.0687 to -0.000641.

Going from C[N+]1(CCOc2ccc([N+](=O)[O-])cc2)CCOCC1 to O=C(Nc1cc([N+](=O)[O-])ccc1F)C1CC1, the z-score falls from -0.159 to -0.162.

Going from CS(=O)(=O)N1N=C(c2ccc3nccnc3c2)CC1c1ccccc1 (configuration not stated) to Cc1nn(-c2ccccc2)c(N)c1Sc1ccc([N+](=O)[O-])cc1, the z-score falls from -0.111 to -0.389.

First: O=c1ccc(=O)n2n1CC(O)C2
Second: COc1cc(Cl)c(C)cc1NC(=O)CCCN1C(=O)CCC1=O
The z-score of the first is higher: 0.375 for the first, -0.613 for the second.

Compared with CCCC1=C(C(=O)OCC)C(c2ccc(N(C)C)cc2)n2ncnc2N1 (configuration not stated), CCC(C)OC(=O)C1=C(C)NC2=C(C(=O)C(C(=O)OC)C(C)C2)C1c1ccc(N(C)C)cc1 (configuration not stated) is lower in z-score: 0.517 for the first, -0.149 for the second.

Going from CN(NC(N)=O)c1ncc(C(F)(F)F)cc1Cl to CCCN(CCO)Cc1cccc(Cl)c1, the z-score rises from -0.193 to -0.0644.

Compared with O=[N+]([O-])c1ccc(/C=N/n2c(-c3cccnc3)n[nH]c2=S)cc1, CCn1c(/C=N/n2cnnc2)nc2ccccc21 is higher in z-score: -0.131 for the first, 0.0863 for the second.

First: O=C(/C=N/O)NCc1ccncc1
Second: CC(=O)c1cccc(NC(=S)NC(=O)C(C)C)c1
The z-score of the first is higher: 0.0144 for the first, -0.0531 for the second.

Going from CN(C)c1ccc(N=Nc2ccccc2C(=O)OCC(=O)N(C)C2CCCCC2)cc1 to CN(C)C(CNC(=O)c1cccc(S(=O)(=O)N(C)C)c1)c1ccccc1 (configuration not stated), the z-score rises from -0.361 to -0.131.

First: O=C(Nc1ccc(Br)cc1)c1cccc(NC(=O)C2C3CC4OC(=O)C2C4C3)c1 (configuration not stated)
Second: Cc1noc(NS(=O)(=O)c2ccc(NC(=O)CSc3nc4c(cc3C#N)CCCCC4)cc2)c1C
The z-score of the first is lower: -0.671 for the first, 0.295 for the second.

First: CCOCCn1c(=NC(=O)c2cc3ccccc3oc2=O)sc2cc(S(N)(=O)=O)ccc21
Second: CS(=O)(=O)N1CCN(C(=O)Cc2cccs2)CC1
The z-score of the first is lower: -0.105 for the first, 0.615 for the second.

Going from CSc1nc(-c2ccccc2)nc2c1COC(C)(C)C2 to CCOC(=O)c1c(-c2cccs2)csc1NC(=O)C(C)(C)C, the z-score rises from -0.367 to -0.0069.

O=C(NCCSc1c[nH]c2ccccc12)c1ccco1 was tested, and the z-score was active: 3.57.
With CCN(c1ccccc1)S(=O)(=O)c1ccc(NC(=S)NC(=O)c2ccc(Br)o2)cc1 the z-score was active: 5.31.
